Reference: the supplement of paper PMC8728848
Some of the results follow.

Columns and labels:
Test in all cases: glycan array binding signal (z-score within array); higher = stronger binding
Details in all cases: glycan notation: IUPAC condensed, linker removed
[1] = target: Neu5Ac(a2-3)Gal(b1-4)GlcNAc(b1-3)[Neu5Ac(a2-3)Gal(b1-4)GlcNAc(b1-6)]GalNAc
Summary of the method: (§1)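 The binding signal is a Z-score computed within each array. Data were drawn from 3228 arrays in the Consortium for Functional Glycomics database, restricted to those with a known protein sequence. Scores were averaged over arrays of the same protein sequence at different concentrations or buffers, and over linkers, and negative values can be taken as non-binding.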

[2] = target: Neu5Ac(a2-3)Gal(b1-4)GlcNAc(b1-6)GalNAc
Summary of the method: as §1

[3] = target: Neu5Ac(a2-3)Gal(b1-4)GlcNAc(b1-6)[Gal(b1-3)]GalNAc
Summary of the method: as §1

[4] = target: Neu5Ac(a2-3)Gal(b1-4)GlcNAc(b1-6)[Neu5Ac(a2-3)Gal(b1-3)]GalNAc
Summary of the method: as §1

[5] = target: Neu5Ac(a2-3)Gal(b1-4)GlcNAc6S
Summary of the method: as §1

[6] = target: Neu5Ac(a2-3)Gal(b1-4)[Fuc(a1-3)]GlcNAc
Summary of the method: as §1

[7] = target: Neu5Ac(a2-3)Gal(b1-4)[Fuc(a1-3)]GlcNAc(b1-2)Man
Summary of the method: as §1

[8] = target: Neu5Ac(a2-3)Gal(b1-4)[Fuc(a1-3)]GlcNAc(b1-3)Gal
Summary of the method: as §1

[9] = target: Neu5Ac(a2-3)Gal(b1-4)[Fuc(a1-3)]GlcNAc(b1-3)Gal(b1-4)GlcNAc
Summary of the method: as §1

[10] = target: Neu5Ac(a2-3)Gal(b1-4)[Fuc(a1-3)]GlcNAc(b1-3)Gal(b1-4)[Fuc(a1-3)]GlcNAc(b1-3)Gal(b1-4)[Fuc(a1-3)]GlcNAc
Summary of the method: as §1

[11] = target: Neu5Ac(a2-3)Gal(b1-4)[Fuc(a1-3)]GlcNAc(b1-3)GalNAc
Summary of the method: as §1

[12] = target: Neu5Ac(a2-3)Gal(b1-4)[Fuc(a1-3)]GlcNAc(b1-6)[Gal(b1-3)]GalNAc
Summary of the method: as §1

[13] = target: Neu5Ac(a2-3)Gal(b1-4)[Fuc(a1-3)]GlcNAc(b1-6)[Neu5Ac(a2-3)Gal(b1-3)]GalNAc
Summary of the method: as §1

[14] = target: Neu5Ac(a2-3)Gal(b1-4)[Fuc(a1-3)]GlcNAc6S
Summary of the method: as §1

[15] = target: Neu5Ac(a2-3)Gal6S(b1-4)GlcNAc
Summary of the method: as §1

[16] = target: Neu5Ac(a2-3)Gal6S(b1-4)[Fuc(a1-3)]GlcNAc
Summary of the method: as §1

Neu5Ac(a2-3)GalNAc = target: Neu5Ac(a2-3)GalNAc
Summary of the method: as §1

[17] = target: Neu5Ac(a2-3)GalNAc(b1-4)GlcNAc
Summary of the method: as §1

[18] = target: Neu5Ac(a2-3)[GalNAc(b1-4)]Gal(b1-4)Glc
Summary of the method: as §1

[19] = target: Neu5Ac(a2-3)[GalNAc(b1-4)]Gal(b1-4)GlcNAc
Summary of the method: as §1

[20] = target: Neu5Ac(a2-3)[GalNAc(b1-4)]Gal(b1-4)GlcNAc(b1-3)GalNAc
Summary of the method: as §1

[21] = target: Neu5Ac(a2-3)[Neu5Ac(a2-6)]GalNAc
Summary of the method: as §1

Neu5Ac(a2-6)Gal = target: Neu5Ac(a2-6)Gal
Summary of the method: as §1

[22] = target: Neu5Ac(a2-6)Gal(b1-3)GlcNAc(b1-3)[Gal(b1-4)GlcNAc(b1-6)]Gal(b1-4)Glc
Summary of the method: as §1

Neu5Ac(a2-6)Gal(b1-4)Glc = target: Neu5Ac(a2-6)Gal(b1-4)Glc
Summary of the method: as §1

[23] = target: Neu5Ac(a2-6)Gal(b1-4)GlcNAc
Summary of the method: as §1

[24] = target: Neu5Ac(a2-6)Gal(b1-4)GlcNAc(b1-2)Man
Summary of the method: as §1

[25] = target: Neu5Ac(a2-6)Gal(b1-4)GlcNAc(b1-2)Man(a1-3)Man(b1-4)GlcNAc(b1-4)GlcNAc
Summary of the method: as §1

[26] = target: Neu5Ac(a2-6)Gal(b1-4)GlcNAc(b1-2)Man(a1-3)[Gal(b1-4)GlcNAc(b1-2)Man(a1-6)]Man(b1-4)GlcNAc(b1-4)GlcNAc
Summary of the method: as §1

[27] = target: Neu5Ac(a2-6)Gal(b1-4)GlcNAc(b1-2)Man(a1-3)[GlcNAc(b1-2)Man(a1-6)]Man(b1-4)GlcNAc(b1-4)GlcNAc
Summary of the method: as §1

[28] = target: Neu5Ac(a2-6)Gal(b1-4)GlcNAc(b1-2)Man(a1-3)[GlcNAc(b1-4)][Neu5Ac(a2-6)Gal(b1-4)GlcNAc(b1-2)Man(a1-6)]Man(b1-4)GlcNAc(b1-4)GlcNAc
Summary of the method: as §1

B1: SSP1 (Sclerotinia sclerotiorum), XP_001584968 (protein)
chain: MGSSHHHHHHSSGLVPRGSHMSLLTTELACTSAPDQVLHLFFQDGQNILEARSPDGGNVWTTQDTIIAKDGDYNGSSMTCYYVDKDANFDNQPSIHLLYMNKDKQLTEKVKRMKGDNPIWEDAKVPDEVRKGPEQYSKLTSGSFNQGTGWNPNGSQWAYFSASKDGKMGIVEIRRTPKDPWHTETILEEKWGDELPGTALACVIGNGKIRVFLQHHDYSIILYENQNNTWHDRGTFIPKDKVQATTPLACTMTKDGSVHLFYVSKSNKIIHCTDGKKEEELINFFPGSKLGATSVENKITLFFRNLNPVNEVGTLENENGSWKHGTTVIPA
- glycan array binding signal (z-score) [1]: -0.365
- glycan array binding signal (z-score) [2]: -0.085
- glycan array binding signal (z-score) [3]: -0.687
- glycan array binding signal (z-score) [4]: -0.364
- glycan array binding signal (z-score) [5]: -0.503
- glycan array binding signal (z-score) [6]: -0.139
- glycan array binding signal (z-score) [7]: -0.489
- glycan array binding signal (z-score) [8]: -0.877
- glycan array binding signal (z-score) [9]: 0.211
- glycan array binding signal (z-score) [10]: -0.118
- glycan array binding signal (z-score) [11]: 0.244
- glycan array binding signal (z-score) [12]: 0
- glycan array binding signal (z-score) [13]: 1.79
- glycan array binding signal (z-score) [14]: -0.166
- glycan array binding signal (z-score) [15]: -0.085
- glycan array binding signal (z-score) [16]: -0.365
- glycan array binding signal (z-score) (Neu5Ac(a2-3)GalNAc): -0.556
- glycan array binding signal (z-score) [17]: 0.205
- glycan array binding signal (z-score) [18]: 0.286
- glycan array binding signal (z-score) [19]: -0.354
- glycan array binding signal (z-score) [20]: 0.386
- glycan array binding signal (z-score) [21]: 0.042
- glycan array binding signal (z-score) (Neu5Ac(a2-6)Gal): 0.232
- glycan array binding signal (z-score) [22]: -0.303
- glycan array binding signal (z-score) (Neu5Ac(a2-6)Gal(b1-4)Glc): -0.168
- glycan array binding signal (z-score) [23]: 0.618
- glycan array binding signal (z-score) [24]: -0.172
- glycan array binding signal (z-score) [25]: -0.09
- glycan array binding signal (z-score) [26]: 0.559
- glycan array binding signal (z-score) [27]: -0.35
- glycan array binding signal (z-score) [28]: -0.21
